Measured values: publication PMC10095973
These are yes or no findings as the source states them, for the method shown. Some binding calls cover weakened binding; strength is not graded here. Sequences can lack the tags named with a protein.

Protein sequences, listed by entry. Tags and fused reporters are not part of them.
UniProt P16972: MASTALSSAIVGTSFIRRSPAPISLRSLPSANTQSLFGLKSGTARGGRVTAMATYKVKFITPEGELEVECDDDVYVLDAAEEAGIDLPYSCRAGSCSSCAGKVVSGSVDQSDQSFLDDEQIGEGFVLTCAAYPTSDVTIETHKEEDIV
UniProt O04090: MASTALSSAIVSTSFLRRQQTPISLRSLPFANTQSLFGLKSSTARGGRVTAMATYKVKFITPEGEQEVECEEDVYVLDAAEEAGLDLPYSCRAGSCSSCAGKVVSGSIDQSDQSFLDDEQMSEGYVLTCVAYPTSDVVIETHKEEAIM
UniProt Q9S831: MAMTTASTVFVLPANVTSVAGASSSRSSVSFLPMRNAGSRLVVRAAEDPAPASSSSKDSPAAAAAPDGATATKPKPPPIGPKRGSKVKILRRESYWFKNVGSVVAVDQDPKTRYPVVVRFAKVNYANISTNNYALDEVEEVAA
UniProt Q9S714: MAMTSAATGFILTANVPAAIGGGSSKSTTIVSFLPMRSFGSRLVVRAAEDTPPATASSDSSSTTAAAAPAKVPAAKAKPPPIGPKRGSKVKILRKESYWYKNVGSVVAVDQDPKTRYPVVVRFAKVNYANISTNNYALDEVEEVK

T1: Arabidopsis thaliana purple acid phosphatase 2 (yeast two-hybrid fusion) (Arabidopsis thaliana) (UniProt Q9LMG7)
T1 sequence: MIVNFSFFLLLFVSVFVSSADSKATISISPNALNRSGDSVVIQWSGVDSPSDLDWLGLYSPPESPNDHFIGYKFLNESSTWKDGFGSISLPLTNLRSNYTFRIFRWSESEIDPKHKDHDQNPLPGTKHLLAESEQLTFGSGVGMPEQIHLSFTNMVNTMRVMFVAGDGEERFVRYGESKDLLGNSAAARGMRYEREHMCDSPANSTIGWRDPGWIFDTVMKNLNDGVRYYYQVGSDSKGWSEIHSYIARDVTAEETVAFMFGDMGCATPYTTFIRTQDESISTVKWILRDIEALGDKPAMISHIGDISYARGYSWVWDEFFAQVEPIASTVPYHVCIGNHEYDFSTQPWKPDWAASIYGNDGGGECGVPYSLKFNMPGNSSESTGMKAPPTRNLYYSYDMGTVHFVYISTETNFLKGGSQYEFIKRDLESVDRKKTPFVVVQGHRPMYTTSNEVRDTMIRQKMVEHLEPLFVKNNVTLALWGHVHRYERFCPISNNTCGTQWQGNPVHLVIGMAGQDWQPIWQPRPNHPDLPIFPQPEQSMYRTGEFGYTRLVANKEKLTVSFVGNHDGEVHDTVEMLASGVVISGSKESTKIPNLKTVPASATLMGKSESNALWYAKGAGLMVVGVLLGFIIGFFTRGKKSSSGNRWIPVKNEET


target: T1, Arabidopsis thaliana purple acid phosphatase 2 (yeast two-hybrid fusion) (Arabidopsis thaliana); assay: two-hybrid; systematic yeast two-hybrid assay of AtPAP2 against nucleus-encoded photosystem proteins; which partner was bait is not stated

binding	Molecule
binds	Fd2 (yeast two-hybrid fusion) (from UniProt P16972 1-148)
binds	Fd1 (yeast two-hybrid fusion) (from UniProt O04090 1-148)
no binding	PsaE1 (yeast two-hybrid fusion) (from UniProt Q9S831 1-143)
binds	PsaE2 (yeast two-hybrid fusion) (from UniProt Q9S714 1-145)
binds	ferredoxin/thioredoxin reductase subunit A2 (yeast two-hybrid fusion) (protein, UniProt Q8LBP6 1-184) MTNSYALSPAIIAAVRPPASQDYLVAASLSGRKSINSSSSSIFVPISLSTSYGRSKCAFSISRKNPKSTIRCDIAVKSAASVDADADLSSSTSLETEEDEKAKEKIGARVRVTVPLKVYHVVRVPEVELMGMEGFIKDYVVLWKGKKISANLPFKVQFVKEIEGRGPVKFFTHLKEDEFELIDP
binds	FTRB (yeast two-hybrid fusion) (protein, UniProt Q9SJ89 1-146) MNLQAVSCSFGFLSSPLGVTPRTSFRRFVIRAKTEPSEKSVEIMRKFSEQYARRSGTYFCVDKGVTSVVIKGLAEHKDSYGAPLCPCRHYDDKAAEVGQGFWNCPCVPMRERKECHCMLFLTPDNDFAGKDQTITSDEIKETTANM
no binding	FTRA1 (yeast two-hybrid fusion) (protein, UniProt Q9FHL4 1-182) MSSQIALSPAIAAAIRRPSSHDCLSASATTATATPMALKSCIVAPLSLFTSQSQIKHSSSRKTSRTTIRCDVAIKSADSINADANPSSSPSSEEEIEAEAKAKIGSRVRVTAPLKVYHVNRVPEVDLEGMEGKLKDYVAVWKGKRISANLPYKIEFFKEIEGRGLVKFVSHLKEDEFEFIDQ
